This note sets out measurements from article PMC4336329 (PLoS ONE, 2015).

Structures are written as SMILES. Screen size: about 310,000 compounds; about 14,000 (4.5%) showed an effect of 50% or more. Effects have a minus sign here. Some of the results follow.
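Further: peak tail current of the secondary pulse compared with the same well before compound.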

The target of this assay is human ether-à-go-go-related gene (hERG) potassium channel (human, UniProt Q12809). In words: primary screen, population patch clamp on CHO cells stably expressing hERG.
Sequence of human ether-à-go-go-related gene (hERG) potassium channel (Q12809 whole entry, looked up): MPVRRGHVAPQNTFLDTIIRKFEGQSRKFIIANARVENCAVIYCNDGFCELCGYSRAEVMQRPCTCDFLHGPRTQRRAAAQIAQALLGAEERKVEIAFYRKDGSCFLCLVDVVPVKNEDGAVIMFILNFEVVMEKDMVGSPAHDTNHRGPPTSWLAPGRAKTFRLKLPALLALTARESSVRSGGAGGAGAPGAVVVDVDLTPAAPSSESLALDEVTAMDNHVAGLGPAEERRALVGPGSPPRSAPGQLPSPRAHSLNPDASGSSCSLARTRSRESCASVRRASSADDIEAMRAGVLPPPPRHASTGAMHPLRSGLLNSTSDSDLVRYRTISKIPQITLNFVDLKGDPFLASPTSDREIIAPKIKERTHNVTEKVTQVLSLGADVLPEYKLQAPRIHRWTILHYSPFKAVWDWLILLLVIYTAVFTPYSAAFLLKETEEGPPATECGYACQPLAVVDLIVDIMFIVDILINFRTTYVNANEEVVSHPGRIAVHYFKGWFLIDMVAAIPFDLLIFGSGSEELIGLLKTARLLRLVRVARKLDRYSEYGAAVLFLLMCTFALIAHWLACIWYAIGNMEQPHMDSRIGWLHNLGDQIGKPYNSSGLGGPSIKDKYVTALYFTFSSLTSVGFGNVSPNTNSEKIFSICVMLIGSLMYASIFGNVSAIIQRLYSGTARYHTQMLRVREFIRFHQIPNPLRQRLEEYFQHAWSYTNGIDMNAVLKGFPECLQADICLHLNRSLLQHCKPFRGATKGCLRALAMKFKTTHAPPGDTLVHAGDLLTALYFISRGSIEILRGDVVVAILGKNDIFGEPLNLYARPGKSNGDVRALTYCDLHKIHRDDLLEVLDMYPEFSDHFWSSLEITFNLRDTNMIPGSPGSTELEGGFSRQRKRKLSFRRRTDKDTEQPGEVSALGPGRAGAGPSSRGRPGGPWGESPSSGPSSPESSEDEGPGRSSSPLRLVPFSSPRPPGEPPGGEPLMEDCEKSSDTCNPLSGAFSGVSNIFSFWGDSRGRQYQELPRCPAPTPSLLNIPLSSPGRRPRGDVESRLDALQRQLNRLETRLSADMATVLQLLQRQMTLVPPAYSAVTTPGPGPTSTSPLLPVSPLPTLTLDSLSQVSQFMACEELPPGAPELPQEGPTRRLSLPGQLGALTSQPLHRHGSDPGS
Consider `N#Cc1ccc(C(=O)Nc2nc3ccccc3[nH]2)cc1`, for which the “hERG current change (%, negative = inhibition) at 10uM” value came out at 19%.
Regarding `CN(C)/C=C1/C=C(C=O)OC1=O`, the “hERG current change (%, negative = inhibition) at 10uM” value came out at 8.74%.
As to `O=c1c2ccccc2oc2cc(NCCCN3CCOCC3)ccc12`, the “hERG current change (%, negative = inhibition) at 10uM” value is listed as -29.7%.
With `O=C(N[C@@H](Cc1c[nH]c2ccccc12)C(=O)O)C1CCN(S(=O)(=O)c2cccs2)CC1`, the “hERG current change (%, negative = inhibition) at 10uM” value was determined as 5.7%.
The same measure for `Cc1cc(C)cc(NC(=O)CN(C)CC(=O)N(CC(C)C)c2c(N)n(CC(C)C)c(=O)[nH]c2=O)c1`: 6.11%.
Take `COc1ccnc(N2CCN(c3ccccc3)CC2)c1C#N`: the “hERG current change (%, negative = inhibition) at 10uM” value came to 4.21%.
On to `CC1CCN(S(=O)(=O)c2ccc3ncn(CC(=O)N(C)Cc4ccccc4)c(=O)c3c2)CC1`, for which the “hERG current change (%, negative = inhibition) at 10uM” value is -61.7%.
Under `Cn1c(=O)c(=O)n(C)c2cc(S(=O)(=O)N3CCN(c4cccc(C(F)(F)F)c4)CC3)ccc21` stands -1.46%.
`Br.Fc1ccc(-c2csc(NC3=NCCC3)n2)cc1`: the “hERG current change (%, negative = inhibition) at 10uM” value is given as -10.9%.
Under `CCOc1ccc(OCC(=O)Nc2nccs2)cc1` stands 19.8%.
The same measure for `O=C(N/N=C/c1cccnc1)c1ccccc1OCc1ccc(Cl)cc1`: -38.4%; for `O=C(NCc1ccc2c(c1)OCO2)C1CCCN(S(=O)(=O)c2cccc3cccnc23)C1` (stereo not drawn): -19.8%.
The same measure for `CCN(CC)C(=O)CN1C(=O)c2cccc3cccc1c23`: 4.55%; for `CCOC(=O)c1c(-c2ccccc2)csc1NC(=O)CCN1C(=O)c2ccccc2C1=O`: 4.17%.
In the case of `CCOC(=O)C(NC(C)=O)C(OC(C)=O)c1cccc(N(CCO)CCO)c1` (stereo not drawn), the “hERG current change (%, negative = inhibition) at 10uM” value stood at 18.4%.
Take `CC1CCC2(CC1)NC(=O)N(CC(=O)NC(=O)NC1CCCC1)C2=O` (stereo not drawn): the “hERG current change (%, negative = inhibition) at 10uM” value is on record as 5.53%.
Under `Cc1oc(=O)c(NC(=O)c2ccccc2)cc1C(C)O` (stereo not drawn) stands 27.5%.
Under `COc1ccc(C(C(=O)NC2CCCCC2)N(C(=O)c2ccco2)c2ccccc2OC)cc1` (stereo not drawn) stands -1.82%; under `CC(=O)N/C(=C/c1ccc2c(c1)OCO2)C(=O)Nc1ccccc1`, -2.13%.
Under `O=C(CSCc1ccc(Cl)cc1)Nc1cccc(C(=O)Nc2ccccc2C(=O)O)c1` stands 11.7%.
As for `COc1ccc2ccccc2c1/C=N/NC(=O)c1ccc(C)nc1`, the “hERG current change (%, negative = inhibition) at 10uM” value amounted to 15.4%.
The same measure for `O=C(NC1CCCN(Cc2ccc(Cl)cc2)C1)c1cccc(F)c1` (stereo not drawn): -61.3%; for `CCOc1cccc(OCCn2cnc3ccccc3c2=O)c1`: 5.84%; for `CN1CC(=O)N2C(c3ccc(Cl)cc3)c3[nH]c4ccccc4c3C[C@H]2C1=O` (stereo partly drawn): -18.2%.
`CCOC(=O)N1CCN(C(=O)c2ccc([N+](=O)[O-])cc2Cl)CC1`: the “hERG current change (%, negative = inhibition) at 10uM” value is -14.3%.
The same measure for `CCOP(=O)(OCC)C(O)c1ccccc1` (stereo not drawn): 14.1%; for `CCSc1nc(C2CC2)cc(-c2ccco2)c1C#N`: 12.7%.
In the case of `CCN(CC)CCNc1ncnc2c1sc1nc(N3CCOCC3)c3c(c12)CCCC3`, the “hERG current change (%, negative = inhibition) at 10uM” value is recorded as -32.8%.
`O=C(NC(=S)Nc1ccccc1)c1cc([N+](=O)[O-])ccc1N1CCOCC1`: the “hERG current change (%, negative = inhibition) at 10uM” value is given as 6.13%.
Turning to `Cc1nn(-c2ccccc2)nc1C(=O)Nc1ccc2c(c1)OCCO2`, the “hERG current change (%, negative = inhibition) at 10uM” value is on record as 10.5%.
The same measure for `COc1cccc(NC(=O)CN(C)CC(=O)Nc2ccc3c(c2)CCC3)c1`: -3.03%; for `CCCCn1c(N)c(NCC(C)C)c(=O)[nH]c1=O`: 10.6%; for `CCOC(=O)C1(CCOc2ccccc2)CCN(Cc2cccc3nonc23)CC1`: -28.6%.
For the compound `O=C(COC(=O)c1cc(S(=O)(=O)N2CCOCC2)ccc1Cl)NCc1ccc2c(c1)OCO2`, the “hERG current change (%, negative = inhibition) at 10uM” value is on record as -21.6%.
With `NS(=O)(=O)c1ccc(CCNC(=S)Nc2ccc(S(N)(=O)=O)cc2)cc1`, the “hERG current change (%, negative = inhibition) at 10uM” value is listed as 9.69%.
Under `Cc1ccc2nc(-c3ccsc3)c(NC3CCCC3)n2c1` stands -0.637%; under `Cc1ccccc1-c1nn2c(-c3ccccc3)nnc2s1`, 11.9%; under `Cc1ccc2[nH]c(=O)c(CN(CCN3CCOCC3)C(=O)Nc3ccc(F)cc3)cc2c1`, -37%.
For the compound `O=C(COC(=O)Cc1cccs1)NCC(=O)Nc1ccc(F)cc1`, the “hERG current change (%, negative = inhibition) at 10uM” value is -20.3%.
For the compound `O=C1/C(=C\c2ccsc2)N2CCC1CC2`, the “hERG current change (%, negative = inhibition) at 10uM” value was determined as 5.75%.
Under `CC(C)NC(=O)COc1ncnc2sccc12` stands 6.97%; under `Cc1cccc2cc(CN(Cc3ccco3)S(=O)(=O)c3ccc4c(c3)OCCO4)c(=O)[nH]c12`, 12.3%; under `CCOCCn1c(C(C)O)nc2ccccc21` (stereo not drawn), 11.7%.
The same measure for `CCn1c(SCC(=O)Nc2cccc(NC(C)=O)c2)nnc1C(C)C`: 5.73%.
The same measure for `O=C(CSc1nnc(-c2ccco2)o1)NCC(=O)c1ccccc1`: -4.72%.
Regarding `COCCc1nc2ccc(C(=O)N3CCCC(CCCO)C3)cc2o1` (stereo not drawn), the “hERG current change (%, negative = inhibition) at 10uM” value is given as 21.7%.
Turning to `O=C(NCCCN1CCCC1=O)C(=O)NCC1OCCN1S(=O)(=O)c1ccc(Br)cc1` (stereo not drawn), the “hERG current change (%, negative = inhibition) at 10uM” value turned out to be 6.2%.
`CCN(CC(=O)NCc1cccs1)C(=O)c1ccc(OC)c(OC)c1`: the “hERG current change (%, negative = inhibition) at 10uM” value turned out to be 7.7%.
As for `CN(C)CCNCc1ccccc1OC1CCCC1.Cl`, the “hERG current change (%, negative = inhibition) at 10uM” value is reported as -12.8%.
The same measure for `Cc1nc2c(nnn2Cc2c(Cl)cccc2Cl)c(=O)[nH]1`: 17.8%; for `Cc1ccc(C(=O)CCC(=O)OC(C)C(=O)NC2CCCCC2C)cc1` (stereo not drawn): 8.09%.
Consider `O=C(NCCCN1CCCC1)c1ccc2c(Cl)c3c(nc2c1)CCCC3`, for which the “hERG current change (%, negative = inhibition) at 10uM” value was -50.1%.
Under `Cc1ccc(S(=O)(=O)N2CCCN(c3nccc(C(F)(F)F)n3)CC2)cc1` stands 4.77%; under `CN(C)S(=O)(=O)c1ccc(/C(O)=C2/C(=O)C(=O)N(Cc3cccnc3)C2c2ccncc2)cc1` (stereo not drawn), 13%; under `CCOC(=O)Cn1cnc2c(cnn2-c2ccccc2)c1=O`, 19.3%.
Under `COc1ccc(/C=C\C(=O)c2c(O)ccc3c(C)cc(=O)oc23)cc1OC` stands 8.03%; under `COc1ccccc1OC(=O)c1ccc(SC)cc1OC`, -24%.
